# Laboratory results: PubChem BioAssay AID504832 (National Center for Advancing Translational Sciences (NCATS), 2011)
# Out of some 310,000 compounds screened, about 18,000 (5.8%) were called active. Inconclusive means that the source gave no clear call. Such entries were picked first, then a sample of the others. Calls come from the whole dose curve; as a rule, active = well fitted inhibition curve with a large enough effect; inconclusive = small, poorly fitted or top-dose-only effect, or another doubt; inactive = no such curve, though single readings can be large or run the other way. Potencies of inconclusive entries are left out as doubtful fits.
# Test: Primary qHTS for delayed death inhibitors of the malarial parasite plastid, 48 hour incubation
# Conditions: P. falciparum luciferase growth in erythrocytes; series mostly up to 28.7 µM
# Outline: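 Read-out is firefly luciferase luminescence from an integrated reporter in P. falciparum, so falling signal marks reduced parasite growth. Infected erythrocytes were at 2% hematocrit and 0.1% parasitemia (final) in Albumax-supplemented RPMI 1640.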
# Potency is the fitted concentration of half-maximal effect; tags give direction and shape of the fitted curve.
row,SMILES,Potency
1,COc1cccc2cc(C(=O)C3=C(O)C(=O)N(CCN4CCOCC4)C3c3ccc(C)o3)oc12 (stereo not given),inactive
2,CC(C)(C)n1nnnc1C(c1cccs1)N(Cc1ccccc1)Cc1ccco1 (stereo not given),active: 13.1 µM
3,O=C(NCc1cccs1)c1ccc(S(=O)(=O)N2CCCCC2)cc1,"inconclusive [inhibitor, partial curve]"
4,CCS(=O)(=O)N1Cc2ccccc2CC1C(=O)Nc1nc2ccccc2s1 (stereo not given),inactive
5,Cc1cccc(CSc2nc3sc(C)c(C)c3c(=O)n2Cc2ccco2)c1,active: 14.7 µM
6,CCOc1ccc(-n2c(SCc3cc(=O)oc4cc(C)ccc34)nnc2-c2cccnc2)cc1,"inconclusive [inhibitor, single point]"
7,Cc1ccc(C)c2[nH]c(=O)c(CN(Cc3ccc4c(c3)OCO4)Cc3nnnn3Cc3ccco3)cc12,active: 8.28 µM
8,CC(C)Nc1nc(-c2cccnc2)nc(-c2ccccc2)c1C#N,active: 8.28 µM
9,O=[N+]([O-])c1cccc(-c2ccc(/C=N/NC(=S)NCc3ccco3)o2)c1,"inconclusive [inhibitor, single point]"
10,COCCNC(=S)N1C2CCC1CC(NC(=O)NC13CC4CC(CC(C4)C1)C3)C2 (stereo not given),"inconclusive [inhibitor, partial curve, poor fit]"
11,CCCN1Cc2cccc(C(=O)NC(CC(=O)OCC)c3ccc(C)cc3)c2C1=O (stereo not given),"inconclusive [inhibitor, single point]"
12,C=CCN(CC=C)CC(O)Cn1c2ccccc2c2ccccc21 (stereo not given),active: 5.86 µM
13,COC(=O)c1ccccc1NC(=O)NC1CCC(C)CC1 (stereo not given),inactive
14,Cc1csc(C(C)N(C)C(=O)CCc2nnc(CCc3ccccc3)o2)n1 (stereo not given),inactive
15,COC(=O)c1sc2ccccc2c1NC(=O)c1ccc(S(=O)(=O)N2CCCCC2C)cc1 (stereo not given),active: 14.7 µM
16,O=C(NCc1ccco1)c1cnn2c1NC(c1ccccc1)CC2C(F)(F)F (stereo not given),"inconclusive [inhibitor, single point]"
17,CCCCN1CCc2c(c3ccccc3n2Cc2ccccc2)C1,active: 10.4 µM
18,CCCCNC(=O)C(c1ccc(OCC(=O)OC)c(C(=O)OC)c1)N(CCc1ccccc1)C(=O)CCCCCN1C(=O)NC(c2ccc(-c3ccccc3)cc2)C(C(=O)OCc2ccccc2)=C1C (stereo not given),active: 1.85 µM
19,CNc1nc(=S)[nH]c2ccccc12,"inconclusive [inhibitor, single point]"
20,Cc1cccn2c(NCc3ccc4c(c3)OCO4)c(-c3ccc(O)cc3)nc12,active: 4.15 µM
21,O=C1COc2ccc(OCc3ccc(F)cc3)cc21,inactive
22,O=C(CN1CCN(Cc2ccccc2)CC1)Nc1ccc(Br)cc1,inactive
23,C=CCn1c(O)c(N=NC(=S)Nc2ccccc2F)c2cc(S(=O)(=O)N3CCOCC3)ccc21,active: 6.57 µM

row,SMILES,Potency
1,C/C(=N\Nc1ccc2nncn2n1)c1ccc(Cl)s1,inactive
2,Cc1ccc2c(c1)c1ncnc(N3CCOCC3)c1n2C,"inconclusive [inhibitor, partial curve, poor fit]"
3,CCOc1cc(/C=N/N=C(N)N)ccc1OCc1ccc(Cl)cc1,active: 1.47 µM
4,O=S(=O)(c1ccc(Cl)cc1)c1nc(-c2ccccc2F)oc1NCCCN1CCOCC1,"inconclusive [inhibitor, single point]"
5,CCN(CC)S(=O)(=O)c1ccc(N2C(=O)CC2(/C=C/c2ccccc2)C(=O)NC2CCCC2)cc1 (stereo not given),"inconclusive [inhibitor, single point]"
6,CCCCN(C(=O)CSc1nnc(-c2ccc(Cl)cc2)o1)c1c(N)n(CC(C)C)c(=O)[nH]c1=O,active: 13.1 µM
7,COCCn1cnnc1SCC(=O)Nc1cccc(S(=O)(=O)N2CCCCC2)c1,"inconclusive [inhibitor, single point]"
8,Cn1c(C(=O)OC(C(=O)NC2CCCCC2)c2ccncc2)cc2sccc21 (stereo not given),"inconclusive [inhibitor, single point]"
9,COc1ccc(C(C)=O)cc1COc1nc(C)nc2ccccc12,inactive
10,COc1ccc(N2CCN(C(=O)C3CCN(C(=O)c4ccc([N+](=O)[O-])cc4)CC3)CC2)cc1,"inconclusive [inhibitor, partial curve, poor fit]"
11,O=C(NCCc1c[nH]c2ccccc12)C1CCN(c2nnc(N3CCCC3=O)s2)CC1,"inconclusive [inhibitor, partial curve, poor fit]"
12,O=C(N/N=C/c1cc(Br)c(O)c(Br)c1O)c1cccnc1,active: 10.4 µM
13,CC(=O)c1ccc(N2C(=O)NC3(CCCCC3)C2=O)cc1,inactive
14,Cc1cc2cc(C)c(NCCNC(=O)c3ccccc3F)nc2cc1C,"inconclusive [inhibitor, single point]"
15,Cc1ccc(S(=O)(=O)N(C)C)cc1NC(=O)COc1ccccc1C(=O)Nc1ccccc1,active: 11.7 µM
16,CC(C(=O)Nc1ccc(C#N)cc1)N(C)CC(=O)Nc1cccc(F)c1 (stereo not given),"inconclusive [inhibitor, partial curve, poor fit]"
17,Cc1cc(C(=O)CN2C(=O)C(=O)N(C3CCCC3)C2=O)c(C)n1CCc1ccc(F)cc1,"inconclusive [inhibitor, partial curve]"
18,CC(C)Cc1nc2sc3c(NCc4ccco4)ncnc3c2c2c1COC(C)(C)C2,"inconclusive [inhibitor, partial curve]"
19,CCCCC1=CC2=CC(=O)C(C)(OC(=O)CC)C(=O)C2=CN1CCOC (stereo not given),"inconclusive [inhibitor, partial curve, poor fit]"
20,CCCCNC(=O)CC1N=C2c3ccccc3N=C(SCC(=O)Nc3ccc(OC)cc3)N2C1=O (stereo not given),"inconclusive [inhibitor, full curve, poor fit]"
21,COc1cc(OC)cc(C(=O)NC(C(=O)Nc2ccc3nc(C)sc3c2)C(C)C)c1 (stereo not given),active: 3.29 µM
22,COc1ccc(S(=O)(=O)N2Cc3ccccc3CC2C(=O)Nc2ccc3c(c2)OCO3)cc1 (stereo not given),"inconclusive [inhibitor, partial curve]"
